Results taken from the supplement of paper PMC10326071.
Values joined by “and” are separate entries in the source; they are usually repeats but may differ in a detail not shown here. Equal entries are not always repeated. Some of the results follow. Most values come without repeats; read them as rough.

Assays:
[1] = system: SARS-CoV-2 nsp3 SARS-unique domain core (SUD-core, nsp3 residues 413-676); assay: dissociation rate constant koff (BLI); higher = faster dissociation; settings: 100 µM; 25 °C
[2] = system: SARS-CoV-2 nsp3 SARS-unique domain core (SUD-core, nsp3 residues 413-676); assay: apparent dissociation constant Kd (single-concentration BLI fit); higher = weaker binding; settings: 100 µM; 25 °C

SMILES | dissociation rate constant koff [1] | apparent dissociation constant Kd [2] [µM]
CNC(=O)c1ccc(C)c(-n2c(C)cc(OCc3ccc(F)cc3F)c(Br)c2=O)c1 | 13.2 s⁻¹ | 499
Nc1cccc(-c2cc3c(Oc4cccc(O)c4)ncnc3[nH]2)c1 | 0.446 s⁻¹ | 1570
CO[C@@H]1[C@H](O)[C@@H](CO)O[C@H]1n1ccc(=O)[nH]c1=O | 0.415 s⁻¹ | 2490
Oc1cc(O)cc(/C=C/c2ccc(O)c(O)c2)c1 | 0.00256 s⁻¹ | 28
Nc1nc(Nc2ccc(S(N)(=O)=O)cc2)nn1C(=O)c1c(F)cccc1F | 0.817 s⁻¹ | 3820
CCCCNc1ncc2c(-c3ccc(CN4CCN(C)CC4)cc3)cn(C3CCC(O)CC3)c2n1 (centres undefined) | 0.0359 s⁻¹ | 29.1
N#Cc1ccc(COC[C@H]2O[C@@H](n3c(NCc4ccc(Cl)c(Cl)c4)nc4c(N)ncnc43)[C@H](O)[C@@H]2O)cc1 | 0.0281 s⁻¹ | 47.4
CS(=O)(=O)CCNCc1ccc(-c2ccc3ncnc(Nc4ccc(OCc5cccc(F)c5)c(Cl)c4)c3c2)o1 | 0.00823 s⁻¹ | 5090
[N-]=[N+]=N[C@]1(CO)O[C@@H](n2ccc(=O)[nH]c2=O)[C@@H](O)[C@@H]1O | 0.0373 s⁻¹ | 9710
COc1nc(N)nc2c1ncn2[C@@H]1O[C@H](CO)[C@@H](O)[C@@H]1O | 0.0184 s⁻¹ | 10300
CCC(=O)N1CCN(c2ccc(-n3c(=O)ccc4cnc5ccc(-c6cnc7ccccc7c6)cc5c43)cc2C(F)(F)F)CC1 | 0.0642 s⁻¹ | 23
O=C(NOCC(O)CO)c1cc(Br)c(F)c(F)c1Nc1ccc(I)cc1F (centres undefined) | 0.491 s⁻¹ | 1620
Nc1n[nH]c2cc(-c3ccc(=O)n(Cc4cccc(Cl)c4)c3)ccc12 | 0.079 s⁻¹ | 163
COc1cc2nccc(Oc3ccc(NC(=O)C4(C(=O)Nc5ccc(F)cc5)CC4)cc3)c2cc1OC | 0.211 s⁻¹ | 2260
O=c1[nH]c2ccccc2n1C1CCN(Cc2ccc(-c3[nH]c4cc5ncnc5cc4nc3-c3ccccc3)cc2)CC1 | 0.0291 s⁻¹ | 56500
O=C(O)c1ccccc1Nc1cccc(C(F)(F)F)c1 | 0.828 s⁻¹ | 1460
CNC(=O)c1cccc(-c2ccc3c(N4CCOC[C@@H]4C)nc(N4CCOC[C@@H]4C)nc3n2)c1 | 0.0751 s⁻¹ | 7860
O=C(c1ccc(/C=C/c2n[nH]c3ccccc23)cc1)N1CCNCC1 | 1.04 s⁻¹ | 119
Cc1cn([C@@H]2O[C@H](CO)[C@@H](O)[C@H]2O)c(=O)[nH]c1=O | 0.0132 s⁻¹ | 191
O=c1[nH]c2ccc(Cl)cc2c(N[C@@H]2CN3CCC2CC3)c1-c1nc2ccccc2[nH]1 | 0.396 s⁻¹ | 2410
Cc1ccc(Oc2ccnc3cc(-c4cnn(C5CCNCC5)c4)ccc23)cc1 | 0.116 s⁻¹ | 9260
C[C@@H]1O[C@@H](O[C@@H]2[C@@H](O)[C@H](OCCc3ccc(O)c(O)c3)O[C@H](CO)[C@H]2OC(=O)/C=C/c2ccc(O)c(O)c2)[C@H](O)[C@H](O)[C@H]1O | 0.928 s⁻¹ | 37.6
NC(=O)c1cccc(-c2cc(Nc3ccc(OC(F)(F)F)cc3)ncn2)c1 | 1.14 s⁻¹ | 1570
CC(C)(C)c1cc(C=C(C#N)C#N)cc(C(C)(C)C)c1O | 0.116 s⁻¹ | 7800
Oc1cc2c(cc1O)C(Cc1cccc3ccccc13)NCC2 (centres undefined) | 0.148 s⁻¹ | 95.8
Cc1cc2cc(Oc3ccnc(Nc4cccc(CS(=O)(=O)NCCN(C)C)c4)n3)ccc2[nH]1 | 0.156 s⁻¹ | 221

SMILES | dissociation rate constant koff [1] | apparent dissociation constant Kd [2] [µM]
C=CC(=O)Nc1cccc(C)c1Nc1ncc2cc(-c3c(Cl)c(OC)cc(OC)c3Cl)ccc2n1 | 0.201 s⁻¹ | 1230
C[C@@H](c1ccc(-c2ccccc2)c(F)c1)c1cc(/N=C(\N)N2CCOCC2)on1 | 0.00464 s⁻¹ | 1.43
Nc1[nH]c(=O)ncc1F | 0.0102 s⁻¹ | 50.8
O=c1oc2ccccc2c(O)c1Cc1c(O)c2ccccc2oc1=O | 1.62 s⁻¹ | 1610
NCc1ccc(Nc2ncc(F)c(Nc3ccccc3)n2)cc1 | 0.121 s⁻¹ | 43.7
Cc1c[nH]c(/C=C2\C(=O)Nc3ccccc32)c1CCC(=O)O | 0.0706 s⁻¹ | 565
C[C@@H]1CCNC(=O)c2cc3ccc(C(=O)Nc4nc5ccccc5n4CCCN(C)C)cc3n21 | 1.29 s⁻¹ | 549
CCc1cc(O)c(F)cc1-c1ccc2c(-c3nc4c([nH]3)CN(C3CCN(C)CC3)CC4)n[nH]c2c1 | 0.105 s⁻¹ | 154
CN1CCC(c2ccccc2CC(C)(C)Nc2nc(N3CCOCC3)nc(-n3c(S(C)(=O)=O)nc4ccccc43)n2)CC1 | 0.736 s⁻¹ | 2520
O=c1ccn2c(n1)O[C@H]1[C@H](O)[C@@H](CO)O[C@H]12 | 0.00911 s⁻¹ | 40.2
CN1CCC(Nc2nc(Nc3ccc(Oc4ccccc4)cc3)c3c(=O)[nH]cc(Br)c3n2)CC1 | 0.024 s⁻¹ | 14900
CN1C(=O)C(Cc2c[nH]c3ccccc23)NC1=S (centres undefined) | 0.0673 s⁻¹ | 88.9
C[C@H]1O[C@@H](n2cnc3c(N)ncnc32)C[C@@H]1O | 0.527 s⁻¹ | 1570
N#Cc1cn([C@@H]2O[C@H](CO)[C@@H](O)[C@H]2O)c2nc[nH]c(=O)c12 | 0.0129 s⁻¹ | 426
CCc1c(C(=O)NNC(=O)[C@@H](O)c2cc(F)cc(F)c2)ccc(O)c1C | 0.947 s⁻¹ | 956
O=c1c(O)c(-c2ccc(O)c(O)c2)oc2cc(O)c(O)c(O)c12 | 0.0018 s⁻¹ | 6.28
C[C@@H](Nc1ncnc2[nH]c(-c3ccc(O)cc3)cc12)c1ccccc1 | 0.409 s⁻¹ | 1840
Cn1ncc(Cl)c1-c1cc(C(=O)N[C@H](CN)Cc2ccc(F)c(F)c2)sc1Cl | 0.688 s⁻¹ | 894
C[C@@]1(F)[C@H](O)[C@@H](CO)O[C@H]1n1ccc(N)nc1=O | 0.00845 s⁻¹ | 50.2
CC(C)(O)c1cc2nc(-c3cnc(N)nc3)nc(N3CCOCC3)c2s1 | 0.226 s⁻¹ | 342
Cc1cn([C@@H]2O[C@H](CO)[C@@H](N=[N+]=[N-])[C@H]2O)c(=O)nc1N | 0.0258 s⁻¹ | 160
COc1cc2c(cc1F)C(c1ccccc1Cl)=Nc1c(n[nH]c1C)N2 | 0.237 s⁻¹ | 62.6
CCn1nnc2c(N3CCOCC3)nc(-c3ccc(NC(=O)Nc4ccc(C(=O)N5CCN(C)CC5)cc4)cc3)nc21 | 0.422 s⁻¹ | 272
Nc1ncnc2c1ncn2[C@@H]1O[C@H](COS(=O)(=O)NC(=O)[C@@H](N)CC(=O)O)[C@@H](O)[C@H]1O | 0.024 s⁻¹ | 97
CC1(O)CC(c2nc(-c3ccc4ccc(-c5ccccc5)nc4c3)c3c(N)nccn23)C1 (centres undefined) | 0.426 s⁻¹ | 3370
C[C@@H](Oc1cc(-n2cnc3ccc(CN4CCN(C)CC4)cc32)sc1C(N)=O)c1ccccc1C(F)(F)F | 0.502 s⁻¹ | 1490

SMILES | dissociation rate constant koff [1] | apparent dissociation constant Kd [2] [µM]
CN(C)CCOc1ccc(-c2nc(-c3ccc4c(c3)CC/C4=N/O)c(-c3ccncc3)[nH]2)cc1 | 0.206 s⁻¹ | 3990
Cn1c(=O)c2[nH]cnc2n(C)c1=O | 0.017 s⁻¹ | 121
Cc1ccc(Oc2nc3cc(-c4ccc(-c5ccccc5)cc4)c(Cl)cc3[nH]2)cc1C(=O)O | 0.0531 s⁻¹ | 8820
COc1cc(C)c(Sc2cnc(NC(=O)c3ccc(CNC(C)C(C)(C)C)cc3)s2)cc1C(=O)N1CCN(C(C)=O)CC1 (centres undefined) | 0.0448 s⁻¹ | 548
CN1CCC(COc2cnc(-c3cccc(Cn4nc(-c5cccc(C#N)c5)ccc4=O)c3)nc2)CC1 | 19.7 s⁻¹ | 27.4
NCC1CCC(CNc2nc(NCc3ccccc3OC(F)(F)F)ncc2[N+](=O)[O-])CC1 (centres undefined) | 0.337 s⁻¹ | 2810
C=CC(=O)N1C[C@H](Nc2ncnc3[nH]ccc23)CC[C@@H]1C | 0.718 s⁻¹ | 315
Oc1ccc(/C=C/c2cc(O)cc(F)c2)cc1 | 0.00866 s⁻¹ | 36
CNC(=O)CN1CCC(Oc2cc3c(Nc4cccc(Cl)c4F)ncnc3cc2OC)CC1 | 1.08 s⁻¹ | 978
O=C(c1ccc(Oc2ccccc2)cc1Cl)c1c[nH]c2ncnc(N[C@@H]3CC[C@@H](CO)OC3)c12 | 0.0977 s⁻¹ | 9110
C=CC(=O)N1CCC(Oc2cc3c(Nc4ccc(Cl)c(Cl)c4F)ncnc3cc2OC)CC1 | 0.12 s⁻¹ | 1560
CNC(=O)c1cc(Oc2ccc(NC(=O)Nc3cc(C(C)(C)C)nn3-c3ccc4ncccc4c3)c(F)c2)ccn1 | 0.0631 s⁻¹ | 12800
Cn1cc(C2=C(c3cccc(N)c3)C(=O)NC2=O)c2ccccc21 | 0.404 s⁻¹ | 3180
O[C@@H]1CO[C@H]2[C@@H]1OC[C@H]2Oc1nc2nc(-c3ccc(-c4ccccc4)cc3)c(Cl)cc2[nH]1 | 0.133 s⁻¹ | 2190
Nc1ncnc2c1c(-c1cccc(OCc3ccccc3)c1)cn2C1CC(CN2CCCC2)C1 (centres undefined) | 0.479 s⁻¹ | 3340
CCCCCCCC/C=C\CCCCCCCC(=O)NCC(=O)O | 0.0166 s⁻¹ | 152
Cn1cc(C2=C(c3cn(CCCSC(=N)N)c4ccccc34)C(=O)NC2=O)c2ccccc21 | 0.0164 s⁻¹ | 42.8
C=CC(=O)Nc1cc(Nc2nccc(-c3c[nH]c4ccccc34)n2)c(OC)cc1N(C)CCN(C)C | 0.945 s⁻¹ | 2050
O=C(NCCO)c1cccc(-c2cc(Nc3ccc(OC(F)(F)F)cc3)ncn2)c1 | 0.172 s⁻¹ | 3610
CCN1CCC(n2cc(CNc3cc(Cl)c4ncc(C#N)c(Nc5ccc(F)c(Cl)c5)c4c3)nn2)CC1 | 0.0101 s⁻¹ | 53.7
Cn1cnc2c(ncn2[C@@H]2O[C@H](CO)[C@@H](O)[C@H]2O)c1=O | 0.122 s⁻¹ | 36400
Cc1ccc(NC(=O)c2ccc(CN(CCN(C)C)C(=O)c3cccnc3)cc2)cc1Nc1nccc(-c2cccnc2)n1 | 0.139 s⁻¹ | 4050
COc1cc(C(=O)NC2CCN(C)CC2)c(F)cc1Nc1ncc2c(n1)N(C1CCCC1)CC(F)(F)C(=O)N2C | 0.124 s⁻¹ | 
Cc1ccc2c(Nc3ccc(Cl)cc3)nccc2c1Nc1ncccc1-c1ncnc2nc[nH]c12 | 0.0255 s⁻¹ | 295
Cc1cnc(Nc2ccc(OCCN3CCCC3)cc2)nc1Nc1cccc(S(=O)(=O)NC(C)(C)C)c1 | 0.437 s⁻¹ and 0.667 s⁻¹ | 
C[N+](C)(C)CCOP(=O)(OC[C@H]1O[C@@H](n2ccc(N)nc2=O)[C@H](O)[C@@H]1O)OP(=O)([O-])O (some centres undefined) | 0.083 s⁻¹ | 85.7
